# B1: IGF-I G1S-A70V displayed on phage (ligand, not shown: large carriers; small tags and cut ends)
# chain: not shown
# notes: Template of the alanine scan (vector pIGF-g3); also called GIS-A70V; G1S-A70V IGF-I
# B2: IGF-I S1G (on G1S-A70V) displayed on phage (ligand, not shown: large carriers; small tags and cut ends)
# chain: not shown
# B3: IGF-I S1A (on G1S-A70V) displayed on phage (ligand, not shown: large carriers)
# chain: not shown
# notes: S1A is printed against the G1S-A70V template
# Experiments:
# [1] = biological target: T1, recombinant human IGFBP-3 (human, UniProt P17936); experiment: competitive phage ELISA, soluble IGFBP-3
# T1 construct: Secreted recombinant protein
# Protocol: (§1) Phage particles were harvested and resuspended in PBS buffer as described in Lowman, H. B., "Phage Display of Peptide Libraries on Protein Scaffolds," in Cabilly, S. (ed.), *Combinatorial Peptide Library Protocols* (Humana Press Inc.: Totowa, N.J., 1998), pp. 249–264. Then phage concentrations were normalized to yield a maximal ELISA signal of 0.2–0.4 for each mutant (Lowman, in Cabilly, S. (ed.), supra). Threefold serial dilutions of soluble competitor were prepared on non-absorbent microtiter plates (Nunc, F, 96 wells) with binding buffer (0.5% TWEEN™ 20/PBS) containing phage at the previously-determined concentrations. The dilution range of competitor protein extended over six orders of magnitude, starting at 5 μM for IGFBP-1 and 500 nM for IGFBP-3. After blocking, the plates containing immobilized target were washed with 0.05% TWEEN™ PBS buffer and subsequently incubated with 80 μl/well of the premixed phage-competitor solutions for 1 hour at room temperature. […] Numbers in Table I represent mean ±standard deviation of individually assessed $IC50$ values.
# (§2) At least two different clones of every mutant were tested.
# [2] = biological target: T2, human IGFBP-1 (human, UniProt P08833 26-259); experiment: competitive phage ELISA, soluble IGFBP-1
# T2 construct: Secreted recombinant protein
# T2 sequence (looked up): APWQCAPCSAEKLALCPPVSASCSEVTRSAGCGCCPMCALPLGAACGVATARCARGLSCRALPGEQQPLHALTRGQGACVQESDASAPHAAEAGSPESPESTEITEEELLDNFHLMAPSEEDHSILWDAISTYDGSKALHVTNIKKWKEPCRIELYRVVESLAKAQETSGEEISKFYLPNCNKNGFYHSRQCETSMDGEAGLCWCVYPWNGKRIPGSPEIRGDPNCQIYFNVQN
# Protocol: as §1, §2
# [3] = biological target: T2, human IGFBP-1; experiment: competitive phage ELISA
# Protocol: as §1, §2
# T1 sequence (P17936 28-291 limits assumed): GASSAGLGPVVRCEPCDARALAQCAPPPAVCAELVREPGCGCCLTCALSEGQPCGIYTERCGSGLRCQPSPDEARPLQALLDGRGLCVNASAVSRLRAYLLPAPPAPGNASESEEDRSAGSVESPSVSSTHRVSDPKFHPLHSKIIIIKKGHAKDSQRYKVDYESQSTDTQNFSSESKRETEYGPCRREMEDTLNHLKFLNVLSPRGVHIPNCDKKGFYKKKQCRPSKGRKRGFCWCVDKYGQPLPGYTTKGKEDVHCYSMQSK
Binder,IC50 [1],IC50 [2],fold increase in binding [3]
B1,0.75 nM,8.2 nM,–
B2,0.99 nM,11.2 nM,–
B3,0.91 nM,5.2 nM,~2 fold

# Reference: patent publication US6506874
